Reference: the supplement of paper PMC3656093
Where “and” joins values, the source holds several entries; their conditions need not be identical. Identical values can stand only once. ± gives the standard deviation of the averaged measurements. Whole data set: some 1,900 compounds, median “CD40L-induced NF-kB luciferase activity, plate-corrected, relative to DMSO (0) and IKK inhibitor VII (-100) controls” near 0.032, cut for the lowest 2% near -26. This is one part of the list.

What follows are molecules tested on BL2-NFkB-Luc (assay: CD40L-induced NF-kB luciferase activity, plate-corrected, relative to DMSO (0) and IKK inhibitor VII (-100) controls (% normalized activity); higher = more NF-kB reporter activity (less inhibition)). Details: 9.4 µM; stimulus: tCD40L 64 ng/ml; 4.5 h.
Method: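 BL2 B cells with a stable NF-kB response-element luciferase reporter (BL2-NFkB-Luc), 384-well. Cells were pre-incubated with compound at 9.4 uM for 1 h at 37 C, then stimulated with 64 ng/ml trimerized CD40L for 4.5 h; luciferase was read with Steady-Glo. Signal was normalised per plate in Genedata (median DMSO neutral control = 0, median IKK inhibitor VII at 50 uM = -100) with Assay Median plate-pattern correction; duplicate plates.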

Row | Structure (SMILES) | CD40L-induced NF-kB luciferase activity
1 | CC(=O)Nc1cc(O)cc(O)c1 | -0.191 ± 1.3
2 | Cc1nnc(SCC(=O)N2CCCC(C(=O)c3ccc(Cl)cc3)C2)o1 (stereo not drawn) | 1.57 ± 0.7
3 | CCn1c2ccccc2c2cc(CC(N)=O)ccc21 | -1.45 ± 1.4
4 | CCn1c(/C=C/c2ccccc2)nc2ccccc2c1=O | 4.25 ± 3.8
5 | O=C(Nc1nc2ccccc2s1)c1ccc(F)cc1 | 41.8 ± 8.4
6 | COc1ccc(/C=C/C(=O)NC(=S)NN2CCCCC2c2cccnc2)cc1 (stereo not drawn) | 1.59 ± 3.4
7 | COc1ccc(OC(C)C(=O)Nc2ccccc2F)cc1 (stereo not drawn) | 3.77 ± 0.15
8 | CC(C)COCC(CN(Cc1ccccc1)c1ccccc1)N1CCCC1 (stereo not drawn) | 1.3 ± 2
9 | CC(C)OC(=O)C1C2C=CC3(CN(CC4CCCO4)C(=O)C13)O2 (stereo not drawn) | -1.72 ± 3.7
10 | COc1cc2c(cc1OC)C(c1ccc(-c3cc(Cl)ccc3Cl)o1)=NCC2 | -21.6 ± 0.51
11 | CC(CCCC(C)(C)O)NC(=O)c1ccc(OC2CCN(C(=O)C3CC3)CC2)cc1 (stereo not drawn) | 1.52 ± 2
12 | COc1cc(OC)cc(C(C)=O)c1 | -2.98 ± 1.2
13 | Cc1ccc2[nH]c3c(c2c1)CN(C(=O)CN1CCSCC1)CC3 | 3.7305 ± 0.0021
14 | NCCOc1ccccc1OCCN | -0.756 ± 1.2
15 | Cc1ccc(-n2ncc3c(Nc4cccc(C(=O)O)c4)ncnc32)cc1 | 12.4 ± 6.6
16 | O=C(CS(=O)(=O)Cc1ccccc1)NCc1ccc2c(c1)OCO2 | -3.03 ± 2.5
17 | CCCCOC(=O)c1ccc(N)cc1 | 25.3 ± 1.5
18 | O=C(Nc1cccc(-c2nc3ncccc3o2)c1)c1ccccc1 | 18.4 ± 0.69
19 | O=C(NCCCCCc1nc2ccccc2[nH]1)c1ccccc1Cl | -2.51 ± 3.2
20 | COc1ccc2oc(=O)c(C(=O)N3CCN(c4ccccc4)CC3)cc2c1 | 19.5 ± 0.31
21 | Cc1ccsc1C1NC(=O)c2ccccc2N1 (stereo not drawn) | 17 ± 6.1
22 | COc1ccc(OC(C)C(=O)Nc2ccc([N+](=O)[O-])cc2)cc1 (stereo not drawn) | -0.769 ± 2.6
23 | CCOc1ccc2ccccc2c1CNc1nnnn1C | 6.61 ± 2
24 | Cc1ccc2ncnc(NCCCCCC(=O)O)c2c1 | 1.46 ± 3.8
25 | CC(C)Oc1ccc(C(CC(=O)O)c2ccc(F)cc2)cc1 (stereo not drawn) | 4.87 ± 0.57
26 | O=C(c1ccco1)N(CCC(c1ccccc1)c1ccco1)Cc1ccco1 (stereo not drawn) | -2.31 ± 2.8

Row | Structure (SMILES) | CD40L-induced NF-kB luciferase activity
27 | CO[C@@]1(NC(=O)Cc2cccs2)C(=O)N2C(C(=O)O)=C(COC(N)=O)CS[C@@H]21 | 0.75 ± 1.5
28 | O=C(c1cc2cc(Br)ccc2o1)N1CCCCC1 | 66.7 ± 7.9
29 | O=C(O)CCSCCC(=O)O | 0.0797 ± 0.66
30 | COc1ccc(CCN2CNc3c(c(=O)n(C)c(=O)n3C)C2)cc1OC | -3.52 ± 5.4
31 | COc1ccc(CN(CCC(c2ccccc2)c2ccc(OC(C)C)cc2)C(=O)CCl)cc1OC (stereo not drawn) | -0.026 ± 5.1
32 | CC(C)OC(=O)C1C(=O)CC(C)(O)C(C(=O)OC(C)C)C1c1cccc(O)c1 (stereo not drawn) | -1.77 ± 1.2
33 | COc1cc(Cc2cnc(N)nc2N)cc(OC)c1OC | 2.83 and 2.74
34 | CC(CCc1ccccc1)NC(=O)/C=C/c1ccccc1 (stereo not drawn) | 7.27 ± 1.9
35 | CC(C)(C)OC(=O)N1CCCC1C(=O)NC(Cc1ccccc1)C(=O)O (stereo not drawn) | 1.85 ± 0.87
36 | CC[N+]1(C)CC2CCC(C)(C1)C2(C)C (stereo not drawn) | 3.62 ± 0.84
37 | COCCn1c(SCCOc2ccccc2)nc2ccccc2c1=O | -6.31 ± 2
38 | COC(=O)c1cc(OC)c(OC)cc1NC(=O)Nc1ccc(OC)cc1OC | -0.98 ± 1.1
39 | O=C(COc1ccccc1)N1CCN(c2ccccc2)CC1 | -1.73 ± 4.1
40 | COc1ccc(-c2c[n+](CC(=O)OC3CC(C)CCC3C(C)C)c3n2CCC3)cc1 (stereo not drawn) | -4.45 ± 0.4
41 | COc1cc(C(=O)OCCn2c(=O)c3c(ncn3CCN(C)C)n(C)c2=O)cc(OC)c1OC | -3 ± 1.3
42 | COc1ccc(CN2CCC(=O)NC2=O)cc1 | 4.64 ± 6
43 | C#C[C@]1(O)CC[C@H]2[C@@H]3CCc4cc(OC5CCCC5)ccc4[C@H]3CC[C@@]21C | 1.12 ± 8.5
44 | CN(C)CCC=C1c2ccccc2CCc2ccccc21 | -1.99 ± 3.8
45 | Cc1ccnc2c1NC(=O)c1cccnc1N2C1CC1 | -6.86 ± 6.4
46 | Cn1c(=O)c2[nH]cnc2n(C)c1=O | 3.7 ± 1.2
47 | CCOC(=O)C1C2C=CC3(CN(c4ccc(Cl)c(F)c4)C(=O)C13)O2 (stereo not drawn) | -3.38 ± 0.57
48 | COc1ccc(CNCCC(c2ccc(F)cc2)c2ccc(OC(C)C)cc2)cc1OC (stereo not drawn) | -4.66 ± 12
49 | COc1c(C)cc(C(=O)C2CCCN(Cc3ccc(Oc4ncccn4)cc3)C2)cc1C (stereo not drawn) | -10.3 ± 4.3
50 | CC(C)COCC1CC2(CC(C)(c3csc(N)n3)OC2=O)C(=O)O1 (stereo not drawn) | 3.24 ± 5.5
51 | C[C@]12CC[C@H]3C(=CCc4cc(O)ccc43)[C@@H]1CCC2=O | 9.18 ± 7
52 | CCOC(=O)C1=C(N)Oc2c(oc(CO)cc2=O)C1c1ccc(F)c(F)c1 (stereo not drawn) | 0.569 ± 3.4

Row | Structure (SMILES) | CD40L-induced NF-kB luciferase activity
53 | CCc1ccc2oc(=O)cc(CN3CCC(C)CC3)c2c1 | 1.94 ± 3.7
54 | Cc1ncc([N+](=O)[O-])n1CC(O)CCl (stereo not drawn) | 2.48 ± 3.2
55 | Nc1ccc(S(N)(=O)=O)cc1N | 3.48 ± 1
56 | Cc1cccc(C)c1NC(=O)C1CCCCN1C (stereo not drawn) | -0.386 ± 0.61
57 | CCOC(=O)c1c(C)oc2cc(Br)c(OC(C)C(=O)OCC)cc12 (stereo not drawn) | 0.454 ± 1.2
58 | COc1ccc(C2C(=O)c3ccccc3C2=O)cc1 | 0.868 ± 0.29
59 | CC(=O)Oc1ccc2c(=O)c(Oc3ccccc3[N+](=O)[O-])coc2c1 | 5.53 ± 3.6
60 | CC(C)(S)[C@@H](N)C(=O)O | -6.24 ± 3.3
61 | COc1ccc(C(=O)Nc2ncc3c(n2)CC(C)CC3=O)cc1 (stereo not drawn) | 11.6 ± 4.2
62 | C=C(C)c1nc2cc(OC)c(OC)cc2c(=O)o1 | -30.6 ± 9.3
63 | CC(=O)O[C@H]1CSC[C@H]1NC(=O)c1ccccc1 | 2.65 ± 7.7
64 | O=C1CCCC(=O)C1=Cc1c[nH]c2ccccc12 | -7.53 ± 0.79
65 | COC(=O)c1cc(-c2c(C)oc3cc(OC)ccc3c2=O)c(C)o1 | 1.37 ± 6.7
66 | COC(=O)c1[nH]c2ccccc2c1NC(=O)CN1CCN(C/C=C/c2ccccc2)CC1 | -0.625 ± 8.3
67 | COc1ccc(-c2cc(=O)oc3c(C)c(O)c(CN(C)C)cc23)cc1 | -15.2 ± 1.7
68 | O=Cc1ccc(O)c(O)c1 | -3.1 ± 0.27
69 | C[C@H](NC(=O)NCCc1ccccc1)C(=O)O | -5.96 ± 5.1
70 | CC(C)(C)C(=O)NCCCNc1ccc([N+](=O)[O-])cc1 | 7.16 ± 1.3
71 | CN1CCCN=C1COC(=O)C(O)(c1ccccc1)C1CCCCC1 (stereo not drawn) | -2.5 ± 2.7
72 | Cc1cc(C)cc(Nc2nc3c([nH]2)c(=O)n(C)c(=O)n3C)c1 | -2.98 ± 0.36
73 | C=CCC1(Cl)C(=O)C(Cl)=C(N2CCOCC2)C1(OC)OC (stereo not drawn) | 4.5 ± 3.7
74 | CCC(=O)c1ccc(O)cc1 | -2.02 ± 12
75 | COc1ccc(C(C)=O)c2c1OCCO2 | 0.693 ± 3.3
76 | Cn1c(=S)n(C)c2ccccc21 | -1.98 ± 2.4
77 | CCOc1ccc(N2C(=O)CC(NCCNc3ccc([N+](=O)[O-])cn3)C2=O)cc1 (stereo not drawn) | -0.123 ± 2.1
78 | CC(=O)O[C@H]1C[C@@]2(C)[C@@H](C[C@@H](O)[C@H]3[C@@]4(C)CC[C@@H](O)[C@@H](C)C4CC[C@@]32C)/C1=C(\CCC=C(C)C)C(=O)O (stereo partly drawn) | -1.41 ± 3.7
